For test [1], the target named is GST-fusion full-length human Hira subunit (human, UniProt P54198 1-1017). Description: pull-down.
The target in test [2] is GST-fusion human Hira truncation mutant 1-481 aa (human, UniProt P54198 in part). Description: pull-down.

B1: His-tag human Asf1a […] aa (domain or fragment)
chain: not shown
Turning to B1, the binding result in test [1] and in test [2] was “binds” each time.
